# Experimental data taken from PubChem BioAssay AID1159614 (National Center for Advancing Translational Sciences (NCATS), 2016).
# Screen size: about 45,000 compounds; about 65 (0.1%) were called active. The call rests on the fitted dose curve; in most records, active means well fitted activation curve with a large enough effect; inconclusive means small, poorly fitted or top-dose-only effect; inactive means no such curve, though single readings can be large or run the other way. This is one part of the list.
# Target: Galactocerebrosidase (Homo sapiens) (UniProt P54803)
# Chain of UniProt P54803 (P54803 whole entry, looked up): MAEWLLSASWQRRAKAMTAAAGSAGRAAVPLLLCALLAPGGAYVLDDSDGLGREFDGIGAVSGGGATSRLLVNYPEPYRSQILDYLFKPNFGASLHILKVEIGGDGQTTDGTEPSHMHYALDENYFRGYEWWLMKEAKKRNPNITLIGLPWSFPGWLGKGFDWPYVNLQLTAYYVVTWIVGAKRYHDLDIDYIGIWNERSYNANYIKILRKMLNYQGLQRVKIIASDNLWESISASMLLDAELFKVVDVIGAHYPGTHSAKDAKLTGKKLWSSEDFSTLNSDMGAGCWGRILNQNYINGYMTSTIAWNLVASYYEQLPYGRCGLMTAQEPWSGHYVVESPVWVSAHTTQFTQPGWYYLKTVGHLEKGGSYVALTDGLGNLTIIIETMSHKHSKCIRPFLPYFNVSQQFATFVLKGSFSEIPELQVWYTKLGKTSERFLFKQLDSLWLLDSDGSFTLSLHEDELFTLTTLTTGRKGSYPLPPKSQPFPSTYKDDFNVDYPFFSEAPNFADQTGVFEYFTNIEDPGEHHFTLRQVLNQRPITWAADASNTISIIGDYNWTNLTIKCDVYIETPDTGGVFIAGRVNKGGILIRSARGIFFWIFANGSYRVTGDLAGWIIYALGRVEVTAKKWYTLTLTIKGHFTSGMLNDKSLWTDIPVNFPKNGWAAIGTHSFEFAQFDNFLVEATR
# Assay: A Novel Cell-Based Assay to Identify Small Molecules for B -Galactocerebrosidase; further: 0% is about no effect; nearly all actives have a fitted effect of over 65% in size
# Conditions: 145M-Twi-hGALC-G270D cells (Twitcher mouse brain line with human GALC G270D), HMU-beta-Gal fluorescence, 48 h; series mostly up to 57.5 µM; activation: at the top concentration
# In short: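 Live 145M-Twi cells (Twitcher mouse brain-derived, GALC-null) stably expressing human GALC-G270D, with a wild-type GALC line, were compound-treated. Residual GALC activity was then read as fluorescence from 0.1 mM final HMU-β-gal at pH 5.2; higher signal means activation.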
row,SMILES,activation
1,Cc1nc2c(c(C)c1CCC(=O)NCc1ccc(Cl)cc1)c(=O)n(C)c(=O)n2C,inactive: -12.5%
2,COc1ccc(NC(=O)CCNS(=O)(=O)c2cccc3nsnc23)cc1Cl,inactive: -7.02%
3,Cc1ccc(/C=C/c2onc(C)c2S(=O)(=O)N2CCC(C(=O)N3CCN(c4ccccc4F)CC3)CC2)cc1,inactive: 10.6%
4,Cc1cccc(-n2c(C)nc3cc(C(=O)NCCC4=CCCCC4)ccc32)c1,inactive: -3.33%
5,O=C(NCc1nc2ccccc2[nH]1)c1c(F)cccc1F,inactive: -7.25%
6,O=C(CSc1nc(Nc2ccc(F)cc2)c2ccccc2n1)c1ccc(F)cc1,inactive: -20.4%
7,CCCS(=O)(=O)N1CC(=O)N(c2ccc(C)cc2)C(C)(C(=O)NC2CCCCCC2)C1 (centres undefined),inactive: 5.02%
8,O=C(NCCc1ccccc1Cl)c1ccc2c(=O)n(-c3ccccc3)c(=O)[nH]c2c1,inactive: -19.2%
9,CCOc1ccccc1CN1CCc2nc(Nc3ccc4c(c3)OCCO4)ncc2C1,inactive: -27.5%
10,COc1ccc(CCNC(=O)c2cc3sccc3n2Cc2ccc(Cl)cc2)cc1OC,inactive: -6.87%
11,Cc1oc2ncn(CC(C)C)c(=O)c2c1C(=O)NC(C)c1ccccc1 (centres undefined),inactive: -25.6%
12,CCOc1ccc(NC(=O)Cn2c(=O)c(CNc3ccc(CC)cc3)cc3cc4c(cc32)OCO4)cc1,inactive: 21.4%
13,Cc1ccc(CNc2ncnc3onc(-c4ccc(F)cc4)c23)cc1,inactive: 18.3%
14,Cc1cc(C)c2nc(NC(=O)c3ccc(S(=O)(=O)N4CCc5ccccc54)cc3)sc2c1,inactive: -5.56%
15,CCN(C(=O)Cn1cnc2onc(-c3ccc(F)cc3)c2c1=O)c1ccc(OC)cc1,inactive: -29.4%
16,O=C(Cn1c(=O)n(Cc2ccc3c(c2)OCO3)c(=O)c2oc3ccccc3c21)Nc1ccccc1F,inactive: 3.04%
17,Cc1cccc(-n2ccnc2SCC(=O)Nc2cccc3ccccc23)c1C,inactive: -34.3%
18,COc1cc(OC)c(NC(=O)N2CCCn3nc(C)cc32)cc1Cl,inactive: -8.93%
19,COc1ccc(C(=O)Nc2ccc3c(c2)CCCN3C(=O)c2cccs2)c(OC)c1,inactive: -11.5%
20,COCCn1c(C)cc(O)c(C(c2ccccc2)N2CCN(c3ccccc3)CC2)c1=O (centres undefined),inactive: -0.819%

row,SMILES,activation
1,COc1ccc(-c2nnc(SCC(=O)NC3CCCCC3)nc2-c2ccc(OC)cc2)cc1,inactive: -20.5%
2,Cc1sc2ncn(CC(=O)N3CCN(c4ccc(Cl)cc4)CC3)c(=O)c2c1S(=O)(=O)N1CCN(c2ncccn2)CC1,inactive: -13.3%
3,Cc1cccn2c(=O)c3cc(C(=O)NCc4cccnc4)c(=N)n(CCCO)c3nc12,inactive: -13.6%
4,CC(C)(C)c1ccc(C(=O)NC2(C(F)(F)F)C(=O)Nc3c2c(=O)[nH]c(=O)n3-c2ccccc2)cc1 (centres undefined),inactive: -6.79%
5,O=C(NCc1ccccc1)c1nc(S(=O)(=O)Cc2ccccc2)ncc1Cl,inactive: -17.1%
6,CN1CCc2nc3sc(C(=O)Nc4ccccc4OC(F)(F)F)c(N)c3cc2C1,inactive: -27.8%
7,COC(=O)c1c(C)oc2ccc(N(C(=O)c3ccncc3)S(=O)(=O)c3c(C)cc(C)cc3C)cc12,inactive: -23.9%
8,CC1=Nc2cc(C(=O)NCCc3ccccc3)ccc2Sc2c(C)ccc(C)c21,inactive: -4.6%
9,Cc1ccc(Cn2c(SCC(=O)C(C)(C)C)nc3ccsc3c2=O)cc1,inactive: -16%
10,CCOC(=O)c1c(C)[nH]c(C)c1S(=O)(=O)N(C)CC(=O)Nc1ccc(C)c(N(C)C)c1,inactive: -4.84%
11,CCOC(=O)c1cc2c(=O)n3ccccc3nc2n(Cc2ccco2)c1=NC(=O)c1c(F)cccc1Cl,inactive: -34.6%
12,COc1ccc(C)cc1NC(=O)c1ccc(=O)n(Cc2ccccc2)c1,inactive: -9.62%
13,CC(C)CCNC(=O)C1CCN(c2nc3ccc(Cl)cc3[nH]2)CC1,inactive: 0.386%
14,O=C(Nc1ccc2nc(SCC(=O)N3CCCC3)sc2c1)c1cccc(Cl)c1,inactive: -18.5%
15,COc1ccc(NC(=O)Cn2c(=O)n(-c3ccc(C)cc3)c(=O)c3c2cnn3C)cc1,inactive: -8.15%
16,CCN1CCCC1=O,inactive: -18.8%
17,COC(=O)c1cc2occc2n1Cc1nc(-c2cccc(Cl)c2)oc1C,inactive: -13%
18,COc1ccc(OC)c(CCNC(=O)c2cnn(-c3ccccc3Cl)c2C2CCN(C(=O)OC(C)(C)C)CC2)c1,inactive: -11%
19,COc1ccc(Nc2nc3c(S(=O)(=O)c4ccccc4)nnn3c3ccsc23)cc1OC,inactive: 16.7%
20,Cc1cccc(C(=O)Nc2c(C(=O)NCc3ccc(Cl)cc3)sc3nc(C)cc(C)c23)c1,inactive: -38%

row,SMILES,activation
1,CC(=O)Nc1ccc(S(=O)(=O)Nc2cc(-c3cn4ccccc4n3)ccc2C)cc1,inactive: -18.7%
2,COc1ccc(CCNC(=O)c2cn(C)c3ccc(S(=O)(=O)N(C)C4CCCCC4)cc3c2=O)cc1OC,inactive: 17.4%
3,COc1ccc(/C=C/c2nc(C#N)c(NCCc3ccccc3)o2)cc1OC,inactive: 29.8%
4,COc1ccc(NC(=O)c2c(C)oc3ccc(O)c(CN4CCCCCC4)c23)cc1Cl,inactive: -11.1%
5,Cc1ccc(C)c(Cn2c(=O)cc(C)c3c(C)nn(-c4cccc(F)c4)c32)c1,inactive: -18.7%
6,COc1ccc(NC(=O)c2cnc(Nc3ccc(C)c(Cl)c3)c3ccccc23)cc1OC,inactive: -5.88%
7,COc1ccc(-c2nsc(NC(=O)C(C)Oc3ccc(Cl)c(C)c3)n2)cc1 (centres undefined),inactive: -4.87%
8,COc1cccc(-n2c(=O)c3c(C)c(C)sc3n(CC(=O)NCc3ccccc3)c2=O)c1,inactive: -1.51%
9,CCOc1ccccc1N1CC(c2nc3ccccc3n2Cc2c(C)cc(C)cc2C)CC1=O (centres undefined),inactive: 4.81%
10,COc1ccc(NC(=O)c2ccc3c(SCC(=O)O)c4c(nc3c2)CCC4)c(OC)c1,inactive: -12.3%
11,COc1ccc(-c2nc(SCc3cc(=O)c4cc(C)ccc4[nH]3)n[nH]2)cc1,inactive: -4.7%
12,COc1ccc(-c2nc(C)c(CCNC(=O)C(=O)Nc3cc(C)cc(C)c3)s2)cc1OC,inactive: -13.1%
13,CCCN(CCC)CCNC(=O)c1ccc2c(c1)NC(=O)C(CS(=O)(=O)Cc1cccc(Br)c1)N2 (centres undefined),inactive: -4.91%
14,Cc1sc2ncn(CC(=O)N3CCN(c4cccc(Cl)c4)CC3)c(=O)c2c1S(=O)(=O)N1CCN(c2ncccn2)CC1,inactive: 8.07%
15,COc1ccccc1N1CCN(S(=O)(=O)CCNC(=O)COc2ccc(C(C)C)cc2)CC1,inactive: -11.8%
16,Cc1cccc(N2CCN(C(=O)c3cc4c(=O)n(C)c5ccccc5c4s3)CC2C)c1 (centres undefined),inactive: -8.38%
17,CC(=O)N1c2ccc(S(=O)(=O)NCC3CCC(C(=O)Nc4cccc(C)c4C)CC3)cc2CC1C (centres undefined),inactive: -18.2%
18,Cc1ccccc1C(=O)Nc1c(C)nc(Nc2ccccc2)nc1Nc1ccccc1,inactive: -9.69%
19,CCOCCCNC(=O)C(c1ccc(OC)cc1)N(Cc1ccc2c(c1)OCO2)C(=O)c1ccccc1O (centres undefined),inactive: -16.4%
